{"source": "PubChem BioAssay AID1487", "about": "(National Center for Advancing Translational Sciences (NCATS), 2009)", "note": "The campaign covered roughly 200,000 compounds. About 25 (0.01%) were called active. Roughly 23% stayed inconclusive and do not appear here. The call rests on the fitted dose curve; in most records, active means well fitted inhibition curve with a large enough effect in the signal ratio, with a control signal flat (not every such curve was filed as active); inconclusive means small, poorly fitted or top-dose-only effect, or effect the other way, or a change in a side signal; inactive means flat fitted curve, though single readings scatter; the % refers to the signal ratio. The list shows a part of the results, in another mix than the full data. On the % scale 0 is the no-effect control and ±100 the full control effect; potency means the concentration at half of the fitted maximal effect.", "data": [{"experiment": "qHTS Assay for Modulators of Lamin A Splicing", "conditions": "HeLa LMNA splicing GFP/RFP minigene ratio, 48 h; series mostly up to 46.1 µM; ratio change, negative = inhibition: at the top concentration", "how_it_was_run": "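S3 HeLa stable clones carrying a lamin A-EGFP splicing minigene plus DsRed2 were seeded at 600 cells/well in Opti-MEM with 2% FBS, pin-dosed and incubated 48 h at 37°C. Acumen cytometry (488 nm) gave the GFP/RFP total-intensity ratio.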", "values": [{"smiles": "O=C(O)C1=CC(=C(c2ccc(O)c(C(=O)O)c2)c2ccc(O)c(C(=O)O)c2)C=CC1=O", "ratio change, negative = inhibition": "inactive: -3.58%"}, {"smiles": "Cc1[nH]c(=O)[nH]c(=O)c1S(=O)(=O)N1CCN(c2cccc(Cl)c2)CC1", "ratio change, negative = inhibition": "inactive: 2.3%"}, {"smiles": "CCOC(=O)N1CCN(c2ccc(O)cc2)CC1", "Potency": "active: 12.6 µM"}, {"smiles": "CCC(C)C(=O)OC1CC(C)C=C2C=CC(C)C(CCC3CC(O)CC(=O)O3)C21", "note": "(stereo unspecified)", "ratio change, negative = inhibition": "inactive: -5.13%"}, {"smiles": "CCN(CC)CCOCCOC(=O)C1(c2ccccc2)CCCC1", "ratio change, negative = inhibition": "inactive: -25%"}, {"smiles": "C[C@@H]1C[C@H]2[C@@H]3CCC4=CC(=O)C=C[C@]4(C)[C@@]3(F)[C@@H](O)C[C@]2(C)[C@H]1C(=O)CO", "ratio change, negative = inhibition": "inactive: -5.55%"}, {"smiles": "N[C@H]1CONC1=O", "ratio change, negative = inhibition": "inactive: -19.5%"}, {"smiles": "CC(Oc1ccccc1)C(=O)NC1C(=O)N2C(C(=O)O)C(C)(C)S[C@@H]12", "note": "(stereo partly specified)", "ratio change, negative = inhibition": "inactive: -2.64%"}, {"smiles": "CCCNC(=O)NS(=O)(=O)c1ccc(Cl)cc1", "Potency": "inactive"}, {"smiles": "CC(=O)c1cc(-c2ccccc2)n(CC(=O)Nc2ccc(C)c(C)c2)c1C", "ratio change, negative = inhibition": "inactive: 1.74%"}, {"smiles": "Clc1cccc(Cl)c1NC1=NCCN1", "ratio change, negative = inhibition": "inactive: -27.5%"}, {"smiles": "Nc1nc2c(ncn2COC(CO)CO)c(=O)[nH]1", "Potency": "inactive"}, {"smiles": "CNCCc1ccccn1", "ratio change, negative = inhibition": "inactive: -4.62%"}, {"smiles": "O=C(c1ccc(F)cc1)C1CCN(CCn2c(=O)[nH]c3ccccc3c2=O)CC1", "ratio change, negative = inhibition": "inactive: -2.35%"}, {"smiles": "Cc1occc1C(=O)N/N=C/C=C/c1ccccc1[N+](=O)[O-]", "ratio change, negative = inhibition": "inactive: 20.6% [at 46 µM]"}, {"smiles": "CCS(=O)(=O)NCC(c1ccco1)N1CCN(c2ccc(F)cc2)CC1", "note": "(stereo unspecified)", "ratio change, negative = inhibition": "inactive: 4.18%"}, {"smiles": "NC1(C(=O)O)CC1", "ratio change, negative = inhibition": "inactive: -7.46%"}, {"smiles": "O=C1NCC2(CCN(CCc3ccccc3)CC2)O1", "ratio change, negative = inhibition": "inactive: -17.1%"}, {"smiles": "C[C@@](Cc1ccc(O)c(O)c1)(NN)C(=O)O", "Potency": "inactive"}, {"smiles": "CC1(C)SC2[C@H](NC(=O)C(NC(=O)N3CCNC3=O)c3ccccc3)C(=O)N2C1C(=O)O", "note": "(stereo partly specified)", "ratio change, negative = inhibition": "inactive: -6.7%"}, {"smiles": "Cc1ccc(CSCC(=O)N2CCN(c3ccc(F)cc3)CC2)cc1", "ratio change, negative = inhibition": "inactive: -6.99% [at 46 µM]"}, {"smiles": "COc1ccc(CCNC(=O)CCCCCn2c(SCC(N)=O)nc3cc4c(cc3c2=O)OCO4)cc1OC", "ratio change, negative = inhibition": "inactive: 15.6% [at 46 µM]"}, {"smiles": "CC1=NS(=O)(=O)c2cc(Cl)ccc2N1", "Potency": "inactive"}, {"smiles": "CC(C)NCC(O)COc1ccc(CC(N)=O)cc1", "note": "(stereo unspecified)", "ratio change, negative = inhibition": "inactive: -3.21%"}, {"smiles": "COc1ccc(/C=C\\C(=O)c2c(O)ccc3c(C)cc(=O)oc23)cc1", "ratio change, negative = inhibition": "inactive: -2.09%"}, {"smiles": "Cn1cc[nH]c1=S", "ratio change, negative = inhibition": "inactive: -2.36%"}]}]}
